Some test systems named below: HCC-1143; HCC-1187; MDA-468; SUM-149.
What all share (test): cell viability relative to vehicle (% of vehicle); basal-like triple-negative breast cancer lines; higher = less cytotoxic
Settings in all cases: 10 µM; 72 h

This is one part of the list. Most values come without repeats; read them as rough.
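Further: stably firefly luciferase-GFP labeled cells in 96-well plates, viability read as luciferase photon flux after d-luciferin addition, treated wells normalized to vehicle wells, single-dose high-throughput screen.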

On to `Cl.Clc1cccc(Cl)c1NC1=NCCN1` [Clonidine HCl], for which the cell viability in the experiment on HCC-1143 came out at 96.9; in the experiment with HCC-1187 it was 109; with MDA-468, 109; in the experiment on SUM-149, 99.3.

On to `CN(CCOc1ccc(CC2SC(=O)NC2=O)cc1)c1ccccn1.O=C(O)C=CC(=O)O` (stereo not given) [Rosiglitazone maleate], for which the cell viability with HCC-1143 was 98.5; with HCC-1187 it was 104; in the experiment with MDA-468, 96.1; in the experiment with SUM-149, 148.

Take `CC(=O)NCC1CN(c2ccc(N3CCOCC3)c(F)c2)C(=O)O1` (stereo not given) [Linezolid]: the cell viability turned out to be 83.3 with HCC-1143, 89.3 in the experiment with HCC-1187, 52.6 in the experiment on MDA-468 and 122 in the experiment on SUM-149.

In the case of `COc1cc2c(Oc3ccc(NC(=O)C4(C(=O)Nc5ccc(F)cc5)CC4)cc3F)ccnc2cc1OCCCN1CCOCC1`, the cell viability in the experiment with HCC-1143 is 105; with HCC-1187, 82.8; with MDA-468 it was 101; in the experiment on SUM-149 it was 87.1.

Turning to `COc1cc2ncnc(Nc3ccc(F)c(Cl)c3)c2cc1NC(=O)C=CCN1CCCCC1`, the cell viability with HCC-1143 is 38.1; in the experiment on HCC-1187, 28.3; with MDA-468, 31.7; in the experiment with SUM-149, 34.8.

Turning to `CS(=O)(=O)O.CS(=O)(=O)O.N=C(N)c1ccc2cc(OC(=O)c3ccc(N=C(N)N)cc3)ccc2c1` [Nafamostat Mesylate(FUT-175)], the cell viability in the experiment with HCC-1143 stood at 90.8; with HCC-1187, 88.2; in the experiment with MDA-468, 90.5; in the experiment on SUM-149, 78.

In the case of `NCC1OC(OC2C(CO)OC(OC3C(O)C(N)CC(N)C3OC3OC(CN)C(O)C(O)C3N)C2O)C(N)C(O)C1O.O=S(=O)(O)O` (stereo not given) [Neomycin sulfate], the cell viability in the experiment on HCC-1143 was determined as 69.8; in the experiment with HCC-1187 it was 75.3; in the experiment with MDA-468 it was 60.9; with SUM-149 it was 71.8.

As for `COc1nc(N)nc2c1ncn2C1OC(CO)C(O)C1O` (stereo not given) [Nelarabine], the cell viability in the experiment on HCC-1143 came out at 81.8; with HCC-1187, 89; with MDA-468, 80.9; in the experiment with SUM-149 it was 98.

`CCN1CCN(Cc2ccc(Nc3ncc(F)c(-c4cc(F)c5nc(C)n(C(C)C)c5c4)n3)nc2)CC1.CS(=O)(=O)O`: the cell viability in the experiment on HCC-1143 turned out to be 71.4; in the experiment with HCC-1187, 71.7; in the experiment on MDA-468 it was 83.2; in the experiment on SUM-149, 116.

Regarding `Cc1ccc(Cl)c(Nc2ccccc2C(=O)[O-])c1Cl.[Na+]` [Meclofenamate Sodium], the cell viability in the experiment with HCC-1143 came out at 135; with HCC-1187, 118; in the experiment on MDA-468 it was 106; in the experiment with SUM-149, 108.

Take `Cc1nc(=O)c2cc(CN(C)c3ccc(C(=O)NC(CCC(=O)O)C(=O)O)s3)ccc2[nH]1` (stereo not given) [Raltitrexed]: the cell viability with HCC-1143 turned out to be 62.9; in the experiment with HCC-1187, 77.8; in the experiment on MDA-468, 87.6; in the experiment with SUM-149, 135.

As for `O=C(Nc1c(Cl)cncc1Cl)c1ccc(OC(F)F)c(OCC2CC2)c1` [Roflumilast], the cell viability in the experiment with HCC-1143 was determined as 92.4; with HCC-1187, 80.9; with MDA-468, 90.3; in the experiment on SUM-149, 132.

Turning to `COCCn1c2c([n+](Cc3cnccn3)c1C)C(=O)c1ccccc1C2=O.[Br-]`, the cell viability in the experiment on HCC-1143 is 34.9; in the experiment on HCC-1187, 23.2; with MDA-468, 27.9; in the experiment on SUM-149, 38.5.

As to `Cc1cc2c(s1)=Nc1ccccc1NC=2N1CCN(C)CC1` [Olanzapine], the cell viability in the experiment on HCC-1143 came to 72.4; with HCC-1187, 85; in the experiment on MDA-468 it was 107; in the experiment on SUM-149, 93.

Take `CCC1OC(=O)C(C)C(OC2CC(C)(OC)C(O)C(C)O2)C(C)C(OC2OC(C)CC(N(C)C)C2O)C(C)(O)CC(C)C(=NOCOCCOC)C(C)C(O)C1(C)O` (stereo not given) [Roxithromycin]: the cell viability is 128 in the experiment on HCC-1143, 101 in the experiment on HCC-1187, 97.4 with MDA-468 and 117 in the experiment on SUM-149.

(Values after the supplement of paper PMC8512760.)
